Reference: the supplement of paper PMC8183993
Where “and” joins values, the source holds several entries; their conditions need not be identical. Equal entries are not always repeated. Structures can show the parent of a compound that is named as a salt. ± gives the standard deviation of the averaged measurements. In all, about 3,100 compounds were measured (“mean cytoplasmic OPP incorporation (global translation) relative to DMSO”: median about 100, lowest 2% from about 56 on). This is one part of the list.

What follows are compounds tested on U2OS (assay: mean cytoplasmic OPP incorporation (global translation) relative to DMSO (% of DMSO); higher = more protein synthesis). Conditions: 10 µM; 24 h.
Procedure: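 Primary image-based screen in U2OS cells: compounds at 10 uM for 24 h, then a 1 h o-propargyl-puromycin (OPP) pulse, click labelling, and high-throughput microscopy. Mean cytoplasmic OPP intensity and nuclei count were normalised to DMSO wells within each plate (DMSO = 100) and averaged over triplicate plates.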

Structure (SMILES)	mean cytoplasmic OPP incorporation
COc1cc(N2CCC(N)CC2)ccc1Nc1ncc(Cl)c(-c2c[nH]c3ccccc23)n1	36.5
O=C1CN(/N=C/c2ccc(-c3ccc([N+](=O)[O-])cc3)o2)C(=O)N1 [Dantrolene]	97.5
O=C1CN(/N=C/c2ccc(-c3ccc([N+](=O)[O-])cc3)o2)C(=O)N1 [Dantrolene, sodium salt]	106
O=C1CN(/N=C/c2ccc(-c3ccc([N+](=O)[O-])cc3)o2)C(=O)N1 [Dantrolene sodium salt]	86
Nc1[nH]nc2nnc(-c3c(-c4ccccc4)nn4ccccc34)cc12	82.7
COc1ccc(/C=C\c2cc(OC)c(OC)c(OC)c2)cc1O [Combretastatin A4]	85.9
CCCC1O[C@@H]2C[C@H]3[C@@H]4CCC5=CC(=O)C=C[C@]5(C)[C@H]4[C@@H](O)C[C@]3(C)[C@]2(C(=O)CO)O1 (some centres not stated) [Budesonide]	110 ± 2.8
COc1cc(C(C)=O)ccc1OCCCN1CCC(c2noc3cc(F)ccc23)CC1 [Iloperidone (Fanapt)]	110
CCOC(=O)[C@H](CCc1ccccc1)N[C@H]1CCCN2CCC[C@@H](C(=O)O)N2C1=O [Cilazapril monohydrate (Inhibace)]	97
COC(=O)c1c(C)[nH]c(C)c1C(=O)c1ccccc1Cc1ccccc1	106 and 102
CC(C)n1nnc2cc(C(=O)O)ccc21	98
CC(C1=C(CCN(C)C)Cc2ccccc21)c1ccccn1 (stereo in doubt) [(S)-(+)-Dimethindene maleate]	99.1
O=C(O)Cc1ccc(OCCNC[C@H](O)c2ccccc2)cc1 [ZD 2079 hydrochloride]	103
CC(C(=O)O)c1cccc(C(=O)c2ccccc2)c1 (configuration not stated) [Ketoprofen]	104
COC(=O)N[C@H](C(=O)N1CCC[C@H]1c1ncc(-c2ccc(-c3ccc(-c4cnc([C@@H]5CCCN5C(=O)[C@@H](NC(=O)OC)C(C)C)[nH]4)cc3)cc2)[nH]1)C(C)C	110
CC1=C(/C=C/C(C)=C/C=C/C(C)=C/C=C/C=C(C)/C=C/C=C(C)/C=C/C2=C(C)C(=O)CCC2(C)C)C(C)(C)CCC1=O [Canthaxanthin]	111
Cc1cc(C)c2c(c1)[C@@H](N(Cc1cc(C(F)(F)F)cc(C(F)(F)F)c1)c1nnn(C)n1)CCCN2C[C@H]1CC[C@H](C(=O)O)CC1	109
CNC(=O)c1ccccc1Nc1nc(Nc2ccc(N3CCOCC3)cc2OC)ncc1Cl	90.7 ± 4.2
CC1=C(C(=O)Nc2cc3cn[nH]c3cc2F)C(c2ccc(C(F)(F)F)cc2)CC(=O)N1 (configuration not stated)	104 ± 4.6
CCOC(=O)c1ncn2c1CN(C)C(=O)c1cc(F)ccc1-2 [Flumazenil]	103
COc1cc(/C=C/c2ccc(O)cc2)cc(OC)c1 [Pterostilbene]	95.8
NCC(O)(CS(=O)(=O)O)c1ccc(Cl)cc1 (configuration not stated) [2-Hydroxysaclofen]	105
CC[C@H](NC(=O)c1c(C)c(-c2ccccc2)nc2ccccc12)c1ccccc1	105
CCOc1cc(CC(=O)N[C@@H](CC(C)C)c2ccccc2N2CCCCC2)ccc1C(=O)O [Repaglinide]	110.1 ± 0.62

Structure (SMILES)	mean cytoplasmic OPP incorporation
O=C(O)C(Cc1c[nH]c2ccccc12)N1C(=O)c2ccccc2C1=O (configuration not stated)	104
CCOC(=O)C1=C(C)NC(C)=C(C(=O)OCC)C1c1ccccc1/C=C/C(=O)OC(C)(C)C [Lacidipine]	106
C[C@H](NC[C@H](O)CP(=O)(O)CC1CCCCC1)c1ccc(Cl)c(Cl)c1	97.4
O=S(=O)(c1ccccc1)N(CC(F)(F)F)c1ccc(C(O)(C(F)(F)F)C(F)(F)F)cc1	98.7
CCCCN(CCCC)CCC(O)c1cc2c(Cl)cc(Cl)cc2c2cc(C(F)(F)F)ccc12 (configuration not stated) [Halofantrine hydrochloride]	120
C#C[C@]1(O)CC[C@H]2[C@@H]3CCc4cc(O)ccc4[C@H]3CC[C@@]21C [Ethinylestradiol]	90.1
C#C[C@]1(O)CC[C@H]2[C@@H]3CCc4cc(O)ccc4[C@H]3CC[C@@]21C [Ethinyl Estradiol]	96.8
COc1cc(F)c(F)c(Nc2ccc(I)cc2F)c1NS(=O)(=O)C1(C[C@H](O)CO)CC1 [Refametinib (RDEA119, Bay 86-9766)]	93.1
Oc1ccc(-c2c(-c3ccccc3)nn3c(C(F)(F)F)cc(C(F)(F)F)nc23)cc1	103
CCCCCN(CCCCC)C(=O)C(CCC(=O)O)NC(=O)c1ccc(Cl)c(Cl)c1 (configuration not stated) [Lorglumide sodium salt]	98.9
Cc1cc(N2CCOCC2)cc2[nH]c(-c3c(NC[C@@H](O)c4cccc(Cl)c4)cc[nH]c3=O)nc12	100
CC(C)(C)NC(=O)[C@@H]1C[C@@H]2CCCC[C@@H]2CN1C[C@@H](O)[C@H](Cc1ccccc1)NC(=O)[C@H](CC(N)=O)NC(=O)c1ccc2ccccc2n1 [Saquinavir mesylate]	116
COc1ccc2[nH]c([S@@+]([O-])Cc3ncc(C)c(OC)c3C)nc2c1 [Esomeprazole magnesium (Nexium)]	95.5
CS(=O)(=O)N1CCN(Cc2cc3nc(-c4cccc5[nH]ncc45)nc(N4CCOCC4)c3s2)CC1 [Pictilisib (GDC-0941)]	73.8
CC(C)NCC(O)c1ccc(O)c(O)c1 (configuration not stated) [Isoproterenol hydrochloride]	96.3
Nc1nc2c(ncn2COCCO)c(=O)[nH]1 [Acyclovir]	99 ± 3.6
Cc1ccccc1C(=O)c1ccc(Nc2ccc(Br)cc2N)cc1Cl	98.5
CC(=O)OCC(=O)[C@@]1(O)[C@H](C)C[C@H]2[C@@H]3CCC4=CC(=O)C=C[C@]4(C)[C@@]3(F)[C@@H](O)C[C@@]21C [Dexamethasone acetate]	100 ± 2.4
COc1ncnc(NS(=O)(=O)c2ccc(N)cc2)c1OC [Sulfadoxine]	109
c1ccc(C(O[C@@H]2CCCN(CCc3ccc4c(c3)OCO4)C2)c2ccccc2)cc1 [Zamifenacin fumarate]	107
COc1ccc(C(=O)c2ccccc2)c(O)c1 [Oxybenzone]	101
COc1c(N2C[C@@H]3CCCN[C@@H]3C2)c(F)cc2c(=O)c(C(=O)O)cn(C3CC3)c12 [Moxifloxacin]	104
CC1(C)CCC[C@]2(C)[C@H]3CC(=O)O[C@]3(C)CC[C@@H]12 [Sclareolide (Norambreinolide)]	104
